Laboratory results as given in article PMC9721059.
No constants are given. Whether binding was seen depends on the method and setting. In cells and extracts the contact can be indirect. Some results given as binding are weak or reduced against the parent protein; the word gives no strength. For some assays here: Tags and fused reporters may be left off the sequences shown.

Amino acid sequences for entries named in this document (tags omitted). A change or cut given only in a name is not applied to a line headed by its entry.
UniProt Q9BPZ7: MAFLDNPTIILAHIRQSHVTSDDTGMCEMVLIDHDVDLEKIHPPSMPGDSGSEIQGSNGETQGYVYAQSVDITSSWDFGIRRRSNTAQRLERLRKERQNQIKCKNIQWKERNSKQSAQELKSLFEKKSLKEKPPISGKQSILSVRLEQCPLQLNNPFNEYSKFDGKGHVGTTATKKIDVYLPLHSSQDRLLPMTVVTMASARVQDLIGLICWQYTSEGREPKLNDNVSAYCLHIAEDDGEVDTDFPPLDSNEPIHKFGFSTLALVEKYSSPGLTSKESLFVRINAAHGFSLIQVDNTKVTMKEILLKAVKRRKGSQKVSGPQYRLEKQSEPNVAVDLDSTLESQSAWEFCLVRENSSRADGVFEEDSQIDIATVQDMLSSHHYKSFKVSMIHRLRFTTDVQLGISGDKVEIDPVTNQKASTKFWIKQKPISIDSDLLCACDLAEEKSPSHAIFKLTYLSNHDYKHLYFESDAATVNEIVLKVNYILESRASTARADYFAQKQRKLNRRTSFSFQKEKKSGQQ
UniProt Q13620: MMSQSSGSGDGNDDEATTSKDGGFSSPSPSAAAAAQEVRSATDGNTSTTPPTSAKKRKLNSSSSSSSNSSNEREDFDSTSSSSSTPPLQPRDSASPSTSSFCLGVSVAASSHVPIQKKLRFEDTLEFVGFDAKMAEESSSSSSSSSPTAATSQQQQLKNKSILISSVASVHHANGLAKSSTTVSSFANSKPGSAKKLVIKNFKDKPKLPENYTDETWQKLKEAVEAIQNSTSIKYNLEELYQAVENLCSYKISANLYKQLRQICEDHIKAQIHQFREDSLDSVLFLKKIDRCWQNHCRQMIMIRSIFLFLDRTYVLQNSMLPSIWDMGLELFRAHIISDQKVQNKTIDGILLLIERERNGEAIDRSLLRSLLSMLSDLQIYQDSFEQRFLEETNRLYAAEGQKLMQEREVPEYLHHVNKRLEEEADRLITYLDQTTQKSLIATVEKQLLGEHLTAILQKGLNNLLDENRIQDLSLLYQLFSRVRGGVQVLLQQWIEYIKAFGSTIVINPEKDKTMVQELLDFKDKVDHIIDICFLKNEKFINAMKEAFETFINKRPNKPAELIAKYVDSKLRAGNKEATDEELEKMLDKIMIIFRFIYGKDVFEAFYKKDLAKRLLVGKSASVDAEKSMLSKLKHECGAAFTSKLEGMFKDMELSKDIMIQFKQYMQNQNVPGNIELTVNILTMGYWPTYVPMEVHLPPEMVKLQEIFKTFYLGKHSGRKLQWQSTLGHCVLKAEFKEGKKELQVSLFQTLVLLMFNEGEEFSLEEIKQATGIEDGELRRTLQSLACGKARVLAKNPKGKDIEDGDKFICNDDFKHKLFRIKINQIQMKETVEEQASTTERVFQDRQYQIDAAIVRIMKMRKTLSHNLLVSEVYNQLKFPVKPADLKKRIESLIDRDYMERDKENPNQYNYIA

Experiments:
[1] = molecular target: SIN1 (stress-activated protein kinase (SAPK)-interacting protein 1), endogenous in TPC-1 cells (human (endogenous in TPC-1)) (UniProt Q9BPZ7); test: co-IP; endogenous proteins in TPC-1 cells; Mg132 (20 uM) added 6 h before harvest; 2 ug antibody overnight, protein A/G beads, three washes, western blot
[2] = molecular target: SIN1, tagged, ectopically expressed from a pCMV vector (UniProt Q9BPZ7); test: co-IP; ectopically expressed SIN1 and CUL4B (Fig. 5B); cells, tags and antibody not told for this panel
[3] = molecular target: SIN1, tagged, ectopically expressed from a pCMV vector (UniProt Q9BPZ7); test: co-IP; 293T cells transfected with the indicated plasmids (SIN1, CUL4B, with or without AURKA); His-IP, western blot; Mg132 (20 uM) added 6 h before harvest
[4] = molecular target: T1, AURKA-Flag (Aurora kinase A), expressed from a pCMV vector in 293T cells (UniProt O14965); test: co-IP; transfection-IP in 293T cells with SIN1 truncations (N, CRIM, RBD, PH); Mg132 (20 uM) added 6 h before harvest; western blot
T1 sequence: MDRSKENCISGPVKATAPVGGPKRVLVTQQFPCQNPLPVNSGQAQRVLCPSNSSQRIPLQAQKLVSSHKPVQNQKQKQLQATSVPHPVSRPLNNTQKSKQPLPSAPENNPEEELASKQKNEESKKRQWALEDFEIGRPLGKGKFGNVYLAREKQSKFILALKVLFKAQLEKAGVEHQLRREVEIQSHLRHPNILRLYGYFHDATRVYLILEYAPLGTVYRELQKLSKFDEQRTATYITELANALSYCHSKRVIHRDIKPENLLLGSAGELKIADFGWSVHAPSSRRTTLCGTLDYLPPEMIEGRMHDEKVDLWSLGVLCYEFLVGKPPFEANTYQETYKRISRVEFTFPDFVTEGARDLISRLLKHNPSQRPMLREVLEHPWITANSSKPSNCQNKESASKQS

CUL4B (Cullin4B), endogenous in TPC-1 cells (from UniProt Q13620 1-913)
binding [1]: binds

CUL4B (Cullin4B), tagged, ectopically expressed from a pCMV vector (from UniProt Q13620 1-913)
binding [2]: binds | binding [3]: binds

SIN1 truncation CRIM (from UniProt Q9BPZ7 139-267) (domain or fragment)
binding [4]: no binding

B1: AURKA-Flag (Aurora kinase A), expressed from a pCMV vector in 293T cells (enzyme, UniProt O14965 1-403)
chain: T1 sequence
binding [3]: binds
